According to PMC2828547:
These are yes or no findings as the source states them, for the method shown. For some of these results: Binding seen in cells or lysates may run through a third protein. Some binding calls cover weakened binding; strength is not graded here. For some of these results: Where a sequence is shown, tags or fusion partners need not be part of it. Each block holds one binder with its values, some of them ahead of it.

By UniProt entry, the sequences of proteins in these tests, tags left out.
UniProt Q13838: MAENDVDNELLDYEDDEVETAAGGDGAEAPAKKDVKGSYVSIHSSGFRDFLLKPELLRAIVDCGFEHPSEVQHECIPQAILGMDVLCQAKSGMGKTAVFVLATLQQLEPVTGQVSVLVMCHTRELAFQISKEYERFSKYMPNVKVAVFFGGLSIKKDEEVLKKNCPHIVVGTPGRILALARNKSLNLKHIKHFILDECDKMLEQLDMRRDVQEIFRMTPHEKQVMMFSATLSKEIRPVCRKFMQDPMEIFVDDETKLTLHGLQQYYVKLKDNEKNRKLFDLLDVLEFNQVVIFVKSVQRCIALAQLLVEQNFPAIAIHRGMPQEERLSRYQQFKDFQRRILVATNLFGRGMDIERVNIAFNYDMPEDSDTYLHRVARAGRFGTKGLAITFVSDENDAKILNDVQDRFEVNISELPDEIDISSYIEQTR

How the values were obtained:
[1] = target: GST-UAP56 (UniProt Q13838); assay: pull-down; GST-UAP56 with 35S-labeled UIF proteins generated with rabbit reticulocyte lysate; only the target purified
[2] = target: T1, GST-NXF1-p15 (UniProt Q9UBU9); assay: pull-down; competition: GST-NXF1-p15 complexed with GB1-UIF, increasing amounts of GB1-6His-REF2-I; Coomassie staining; both purified
T1 sequence 1: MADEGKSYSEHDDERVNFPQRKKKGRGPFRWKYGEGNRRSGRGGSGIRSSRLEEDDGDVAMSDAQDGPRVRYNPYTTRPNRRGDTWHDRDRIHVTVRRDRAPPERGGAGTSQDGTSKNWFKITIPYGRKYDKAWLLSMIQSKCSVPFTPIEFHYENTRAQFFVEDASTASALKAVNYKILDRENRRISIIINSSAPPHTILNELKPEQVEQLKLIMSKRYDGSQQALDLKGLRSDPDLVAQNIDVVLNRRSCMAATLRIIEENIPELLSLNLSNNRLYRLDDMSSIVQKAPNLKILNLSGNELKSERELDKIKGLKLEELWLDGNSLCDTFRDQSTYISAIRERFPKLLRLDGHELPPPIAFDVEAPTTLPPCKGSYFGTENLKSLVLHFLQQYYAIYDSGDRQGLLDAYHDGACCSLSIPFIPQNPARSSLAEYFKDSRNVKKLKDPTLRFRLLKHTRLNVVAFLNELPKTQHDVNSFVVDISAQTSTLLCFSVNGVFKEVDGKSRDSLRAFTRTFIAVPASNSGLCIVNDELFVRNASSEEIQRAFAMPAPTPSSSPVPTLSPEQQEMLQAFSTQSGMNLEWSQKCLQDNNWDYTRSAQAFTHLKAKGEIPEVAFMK
T1 sequence 2: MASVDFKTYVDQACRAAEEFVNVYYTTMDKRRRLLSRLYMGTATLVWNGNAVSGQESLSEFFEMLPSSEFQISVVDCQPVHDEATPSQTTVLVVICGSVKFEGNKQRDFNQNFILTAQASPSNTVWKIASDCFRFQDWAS

[3] = target: T2, GST fusion of NXF1 (Figure 2B) (UniProt Q9UBU9); assay: pull-down; GST fusion proteins with purified UIF in the presence of RNase; Coomassie staining; both purified
T2 sequence: T1 sequence 1

[4] = target: T3, FLAG-UIF (human) (UniProt Q96QD9); assay: co-IP; recombinant NXF1-p15 added in increasing amounts to the FLAG-UIF / Myc UAP56 immunoprecipitation; read out as displacement of UAP56; only the binder purified
T3 sequence: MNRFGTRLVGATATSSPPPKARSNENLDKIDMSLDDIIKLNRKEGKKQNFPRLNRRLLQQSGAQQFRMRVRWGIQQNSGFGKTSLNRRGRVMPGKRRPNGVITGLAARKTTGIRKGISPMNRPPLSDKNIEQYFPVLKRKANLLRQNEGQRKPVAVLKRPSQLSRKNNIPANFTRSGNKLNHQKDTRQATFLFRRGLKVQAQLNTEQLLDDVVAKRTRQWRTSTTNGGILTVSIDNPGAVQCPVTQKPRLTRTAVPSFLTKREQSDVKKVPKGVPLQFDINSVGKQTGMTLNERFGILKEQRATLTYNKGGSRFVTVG

binding [1]: binds
B1: 35S-labeled UIF (protein, UniProt Q96QD9 1-318)
chain: T3 sequence
modifications: 35S-labeled

binding [2]: binds
B2: GB1-6His-UIF (protein, UniProt Q96QD9 1-318)
chain: T3 sequence

binding [3]: binds
B3: purified UIF (recombinant) (protein, UniProt Q96QD9 1-318)
chain: T3 sequence

binding [4]: binds
B4: recombinant NXF1-p15 (complex, UniProt Q9UBU9 1-619; Q9UKK6 1-140)
chain 1: T1 sequence 1
chain 2: T1 sequence 2
